Results: article PMC11320581 (ACS Infectious Diseases, 2024)

What was measured:
[1] = biological target: T1, N. gonorrhoeae topoisomerase IV (Neisseria gonorrhoeae, UniProt P48374+Q5F754); assay type: biochemical
[2] = biological target: T1, N. gonorrhoeae topoisomerase IV; assay: Topoisomerase IV-catalyzed DNA decatenation; conditions: 20 min, read-out: DNA decatenation activity of topoisomerase IV remaining

Structure (SMILES)	double-stranded and total DNA strand breaks, gyrase compared with topoisomerase IV [1]	remaining activity at 200 µM [2]
CC1CN2c3c(cc4c(OCC5CCC(=O)N5)noc4c3F)CC3(C(=O)NC(=O)NC3=O)C2C(C)O1 (centres unmarked) [H3D-005722]	comparable levels	
C[C@@H]1CN2c3c(cc4c(N5C(=O)OC[C@@H]5C)noc4c3F)CC3(C(=O)NC(=O)NC3=O)[C@H]2[C@H](C)O1 [zoliflodacin, Zoliflodacin]		≥ 50%
